This note sets out measurements from PubChem BioAssay (NCI).

The subject of the test is NCI-H322M lung. Put plainly: NCI anticancer screen, dose series, 48 h.

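Tested at 5 concentrations; 48 h exposure; 96-well plates; endpoints linearly interpolated, else capped at highest concentration. GI50 is the concentration that inhibits growth by half. TGI denotes the concentration required for complete inhibition of growth.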 A value given as a limit tells only on which side of the number the result lay.

Consider `COc1ccc2c(c1)CC[C@@H]1C2CC[C@]2(C)C(=O)N(N)C(=O)CC12` (stereo not given in full), for which the TGI is more than 100 µM.

For the compound `Nc1ccc(Oc2ccc(C34CC5CC(C3)CC(c3ccc(Oc6ccc(N)cc6)cc3)(C5)C4)cc2)cc1`, the TGI stood at 13 µM.

Compound `C#C[C@]1(O)CC[C@H]2[C@@H]3CCC4=C/C(=N\OCCN(CC)CC)CC[C@]4(C)[C@H]3CC[C@@]21C` registered a TGI of 23.6 µM.

`O=C1CC(c2ccc(Cl)cc2)C2(C(=O)NC(=O)NC2=O)C(c2ccc(Cl)cc2)C1` (stereo not given) came in with a TGI of 60.2 µM.

In turn, `Nc1nc(NCC2(CO)CCC2)cc(=O)[nH]1` returned a TGI of more than 100 µM.

In the case of `COc1ccc(C2c3cc4c(cc3OC(O)(CO)C2C(=O)O)OCO4)cc1` (stereo not given) (tested in a mixture with another compound), the TGI is more than 100 µM.

On to `O=S(=O)(NCCNc1cc(-c2cn(-c3ccccc3)nc2-c2cccc(O)c2)ccn1)c1ccc(Cl)cc1`, for which the GI50 is 3.85 µM and the TGI was determined as 29.6 µM.

On to `N[C@@H]1CCCC[C@@H]1N.O=C([O-])CN(CP(=O)([O-])[O-])CP(=O)([O-])[O-].[Pt+2]`, for which the GI50 is more than 100 µM and the TGI is more than 100 µM.

`NC(=S)N/N=c1\cc(C(=O)Nc2ccc([N+](=O)[O-])cc2[N+](=O)[O-])oc2ccccc12`: the TGI is more than 100 µM.

On to `COc1ccc2c(c1)cn1c3ccc(O)cc3[nH]c(=O)c21`, for which the GI50 is 0.539 µM and the TGI was 9.84 µM.

Regarding `C[S+](C)CC(=O)c1ccc2c(c1)Sc1ccccc1O2`, the TGI stood at 28.4 µM.

`CSc1nc2c(c(O)c(C)c(=O)n2C2OCC(OC(C)=O)C(OC(C)=O)C2OC(C)=O)c(=O)n1C` (stereo not given) displayed a TGI of more than 100 µM.

For `COc1cc(C)c(C)c(OC(=O)c2c(C)c(C)c(OC)c(C)c2OC)c1C`, the TGI is more than 100 µM.

`CC1CN=C(NS(=O)(=O)c2cc(C(=O)Nc3ccc(F)cc3)c(Cl)cc2S)NN1` (stereo not given) returned a TGI of more than 100 µM.

Compound `CC(=O)Oc1cc(C)c(OC(C)=O)c2c1[C@H]1CC[C@]3(C)[C@@H](OC(C)=O)CC[C@H]3[C@@H]1CC2` returned a TGI of 28.7 µM.

Regarding `COc1cc(C2=NN(c3ccc(S(N)(=O)=O)cc3)C(c3ccc(Cl)cc3)C2)cc(OC)c1OC` (stereo not given), the GI50 is 6.06 µM and the TGI was more than 100 µM.

In turn, `CCOC(=O)C(=O)NCCCN1CCOCC1` displayed a TGI of more than 100 µM.

In the case of `CCCCCCC#CC#Cc1cccc(=O)o1`, the GI50 was 15.3 µM and the TGI came out at 30.8 µM.

With `COc1ccc(C(=O)COc2cccc(/C=C3\CSc4ccc(Cl)cc4C3=O)c2)cc1`, the GI50 is 83.1 µM and the TGI was more than 100 µM.

Consider `CC(=O)c1cc2c(c3ccsc13)-c1ccccc1CC2`, for which the GI50 was 24.7 µM and the TGI worked out at 88.1 µM.

`C1=CC(=[N+]2N=C(c3ccccc3)CC2c2ccccc2)C=CC1=C1SC(c2ccccc2)(c2ccccc2)c2ccccc21` (stereo not given): the TGI was more than 100 µM.

In the case of `CCc1c(O)c2c(c(O)c1C(C)=O)C(=O)c1c(cc(O)c(C(=O)O)c1C(=O)O)C2=O`, the TGI is more than 100 µM.

`COC(=O)c1ccccc1C1CN=NC12Cc1cc(C)c(C)cc1C2=O` (stereo not given) came in with a TGI of more than 100 µM.

Turning to `CCCN1C(=O)CSC1=Nc1ccc2cc3ccc(N=C4SCC(=O)N4CCC)cc3nc2c1`, the GI50 was 54.5 µM and the TGI is more than 100 µM.

`Cc1cc(N(CCC#N)CCC#N)ccc1N=Nc1cccc(Cl)c1` returned a TGI of more than 100 µM.

Consider `CCCCCCCCCCCCCC(=O)C(C)N` (stereo not given), for which the GI50 is 6.9 µM and the TGI turned out to be 20.9 µM.

Consider `CCN(CC)c1ccc2cc(C(=O)Nc3nc(C45CC6CC(CC(C6)C4)C5)cs3)c(=O)oc2c1`, for which the TGI is more than 100 µM.

For `CC(=O)c1ccc2c(c1)N(CCCN1CCN(CCO)CC1)c1ccccc1C2`, the TGI is 31.8 µM.

In the case of `CC(O)(CNS(=O)(=O)c1ccccc1)c1ccccc1` (stereo not given), the TGI is more than 100 µM.

For the compound `Cc1cc(C)cc(Nc2ccc([N+](=O)[O-])c(NCCN3CCOCC3)n2)c1`, the TGI was more than 100 µM.

Turning to `CCCCCCCCCCCC(O)=C1C(=O)CC(O)CC1=O` (stereo not given), the TGI is more than 100 µM.

Regarding `CCCCCCCCCCCCCCCC(=O)OC(COC(C)=O)CO[P+](=O)O` (stereo not given), the TGI is more than 100 µM.

Take `CCN(CC)CCOc1ccc2c(c1)C(=O)c1cc(OCCN(CC)CC)ccc1-2`: the GI50 was 12.5 µM and the TGI is 67.9 µM.

Consider `CCOC(=O)c1sc2nc(-c3ccccc3)nn2c1CBr`, for which the TGI turned out to be 7.36 µM.

Regarding `CC(=O)N/N=C1/CC[C@@]2(C)C(=CC[C@H]3C4CCC(C(C)CCCC(C)C)[C@@]4(C)CCC32)C1(C)C` (stereo not given in full), the TGI is more than 100 µM.

The compound `CCOP(=O)(OCC)[C@]12C[C@@H](C)C=C[C@H]1COC2=O` yielded a TGI of more than 100 µM.

In turn, `C#C[C@H](CCCC)OC(=O)N[C@H](C)c1ccccc1` gave a TGI of more than 100 µM.

`c1cc(-c2cn[nH]c2)cc(-c2cn[nH]c2)c1`: the TGI is more than 100 µM.

Compound `COC(=S)OC1CC(n2cnc3c(N)ncnc32)OC1CO[Si](C)(C)C(C)(C)C` (stereo not given) came in with a TGI of 49.9 µM.

In the case of `COc1cc(NCc2ccccc2O)c2ncccc2c1`, the GI50 was 20.9 µM and the TGI is more than 100 µM.

The compound `C[C@H](CCC(=O)O)[C@H]1CC[C@H]2[C@@H]3[C@H](O)C[C@@H]4C[C@H](O)CC[C@]4(C)[C@H]3CC[C@]12C` showed a TGI of more than 100 µM.

In turn, `COc1ccc(N2C(=O)[C@@H]3[C@H](C2=O)c2[nH]c4ccccc4c2C2CCC(C(C)(C)C)C[C@@H]23)cc1` (stereo not given in full) returned a TGI of more than 100 µM.

`CCC1(N=[N+]=[N-])C(=O)c2ccccc2N(c2ccccc2)C1=O` (stereo not given): the TGI was more than 100 µM.

`COC(=O)C[C@H](COCc1ccccc1)NC(=O)C[C@H](COCc1ccccc1)NC(=O)OC(C)(C)C` yielded a TGI of 68 µM.

Regarding `O=C(NCCNCCNC(=O)C(F)(F)F)C(F)(F)F`, the TGI is more than 100 µM.

`COc1ccc(NC(=O)CC(=O)N/N=C/c2ccc(N(CCC#N)S(=O)(=O)c3ccccc3)cc2)cc1` came in with a TGI of more than 100 µM.

Consider `CS(=O)(=O)CCn1c(=O)c(Oc2ccc(F)cc2F)cc2cnc(NC3CCOCC3)nc21`, for which the GI50 is more than 25 µM and the TGI is more than 25 µM.

Regarding `c1cc[c]([Sn]([S]c2cccc3cccnc23)([S]c2cccc3cccnc23)[c]2ccccc2)cc1`, the GI50 is 0.303 µM and the TGI was 1.21 µM.

With `O=[N+]([O-])/C=C\c1c[nH]c2ccc(OCc3ccccc3)cc12`, the TGI was 29 µM.

The compound `O=C(O)c1cscc1Cc1cccs1` came in with a TGI of more than 100 µM.

For the compound `COC(=O)/C(=C/c1ccc(OC)cc1)NC(=O)c1ccccc1`, the TGI was more than 100 µM.

In the case of `C1=C(c2ccccc2)SC=C(c2ccccc2)S1`, the TGI was more than 100 µM.

With `CCCCCOC(=O)c1cc2cc(CCl)ccc2oc1=O`, the TGI was determined as 33.7 µM.

As to `CC(O)C(O)C(O)C(/C=N\Nc1ccccc1)=N/Nc1ccccc1` (stereo not given), the TGI was found to be 27.6 µM.

Turning to `Nc1cc(N2CCOCC2)nc(=O)n1-c1ccc(Cl)cc1`, the TGI was more than 100 µM.

In turn, `COc1cc2c(cc1C)NC(=O)/C2=C/c1c(Cl)n(-c2ccccc2)c2ccccc12` returned a TGI of more than 100 µM.

In the case of `O=C(Nc1ccccc1O)c1ccc(CNC(=O)c2sccc2Nc2ccnc(C(F)(F)F)c2)cc1`, the GI50 was 9.49 µM and the TGI was 69.5 µM.

Consider `Cc1nc2cc(Nc3nc(Nc4ccc(F)cc4)nc(N4CCN(C)CC4)n3)ccc2n1Cc1ccccc1`, for which the GI50 was 2.19 µM and the TGI came out at 4.61 µM.

For the compound `C[C@@H]1OC(=O)C[C@H]2CC(=O)N(CCC3CN(S(=O)(=O)C(F)(F)F)c4ccccc43)C[C@@H]21` (stereo not given in full), the TGI was more than 100 µM.

For `CCOC(=O)CCC(NC(=O)c1ccc(Nc2cnc3ccc(C(F)(F)F)cc3n2)cc1)C(=O)OCC` (stereo not given), the TGI is more than 85.6 µM.

On to `Oc1c(I)cc(-c2nc3ccccc3s2)cc1CN(Cc1ccccn1)Cc1ccccn1`, for which the GI50 is 0.395 µM and the TGI is more than 100 µM.

In the case of `O=C1CCCCC(=O)Nc2ccccc2N1`, the TGI was more than 100 µM.

`N#Cc1c(N)nc2c(c1-c1ccc(Br)cc1)CSc1ccccc1-2` displayed a TGI of more than 100 µM.

In turn, `CCOc1ccc2ccc3cccnc3c2n1` yielded a TGI of more than 100 µM.

With `Cc1[nH]nc2c1C(=O)C=C(N(CCO)c1ccccc1)C2=O`, the TGI is more than 100 µM.

`CC1(C)CC(=O)c2c(nc(SSc3nc4c(c(-c5ccc(Br)cc5)c3C#N)C(=O)CC(C)(C)C4)c(C#N)c2-c2ccc(Br)cc2)C1`: the TGI was more than 10 µM.

`COC(=O)CCc1cccnc1/C=N/O`: the TGI is more than 100 µM.

Compound `COC(=O)C1=C(O)CCCC(CCC(C)=O)=C1` registered a TGI of more than 100 µM.

In turn, `CC(=O)C(=[N+]=[N-])C(=O)OCCOC(=O)C(=[N+]=[N-])C(C)=O` returned a TGI of more than 1 µM.

Take `COc1ccc(Cl)cc1NC(=O)c1cccc([N+](=O)[O-])c1O`: the TGI is more than 82.6 µM.

As to `CN(C)CCc1ccnc2nc(-c3ccc4ccccc4c3)cn12`, the TGI was more than 100 µM.

For the compound `C[N+](C)(C)CC(=O)N/N=C(/CC1OC(=O)c2ccccc21)c1ccccc1O` (stereo not given), the TGI is more than 100 µM.

`O=S(=O)(O)/C(=C\c1ccccc1)c1ccccc1` (tested in a mixture with another compound): the TGI was more than 100 µM.

Consider `Cc1cc(=O)oc2c(C)c3oc(CBr)c(Br)c3cc12`, for which the TGI was more than 100 µM.

In the case of `CCNc1nc2c(ncn2C2CC(O)C(COP(=O)(O)O)O2)c(=O)[nH]1` (stereo not given), the TGI is more than 100 µM.

As for `CC(C)(C)OC(=O)CN1CCc2c(sc3ncnc(N/N=C/c4cccc5ccccc45)c23)C1`, the GI50 is 3.46 µM and the TGI was more than 33.3 µM.

The compound `CC(=O)Oc1ccc(CO)cc1OC(C)=O` showed a TGI of more than 100 µM.

`CCCCCC(O)(CCCCC)CCCCCCCCC1=C(O)c2[nH]c(=O)ccc2C(=O)C1=O` returned a TGI of 16.2 µM.

`NC(=S)N1N=C(c2ccccc2O)CC1c1ccccc1` (stereo not given) had a TGI of 54.4 µM.

The compound `CC(C(=O)c1ccc(Cl)cc1)C1OC(=O)C(Cl)=C1Cl` (stereo not given) gave a TGI of more than 100 µM.

Take `Cc1cc(C)n(C(=O)c2nn(-c3ccc(Cl)cc3)cc2O)n1`: the GI50 is 6.17 µM and the TGI was more than 100 µM.

As for `CNC(=O)OC1C(O[C@H]2C[C@H]3[C@@H]4CC=C5C[C@@H](O)CC[C@]5(C)[C@H]4CC[C@]3(C)[C@H]2[C@H](C)C(=O)CCC(C)C)OCC(O)C1OC1OCC(O)C(O)C1OC(=O)c1ccc(OC)cc1` (stereo not given in full), the GI50 was 1.78 µM and the TGI was 6.25 µM.

In turn, `COc1cc(Cl)c2c3c(c(C(=O)c4ccccc4)oc13)CCC2` came in with a TGI of more than 100 µM.

In the case of `C/C1=C\C/C=C(\C)[C@H]2CC(CC/C(C)=C/CC1)[C@](C)(C=O)O2`, the GI50 was more than 100 µM and the TGI was more than 100 µM.

`Cn1c2ccccc2n2c3ccccc3c(=O)c(C#N)c12` came in with a TGI of 73.8 µM.
